Measurements reported in the supplement of paper PMC8728848.
This is one part of the list.

What was measured:
Assay in all cases: glycan array binding signal (z-score within array); higher = stronger binding
Settings in all cases: glycan notation: IUPAC condensed, linker removed
[1] = molecular target: Gal(b1-4)GlcNAc(b1-6)Gal(b1-4)GlcNAc
In short: (§1)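 Columns mapping to the same glycan were averaged after glycan names were converted to IUPAC-condensed notation. The data come from 3228 arrays in the Consortium for Functional Glycomics database, limited to those with an available protein sequence. Binding is reported as a within-array Z-score averaged across arrays of one protein sequence and across linkers.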

[2] = molecular target: Gal(b1-4)GlcNAc(b1-6)Gal(b1-4)GlcNAc(b1-6)GalNAc
In short: as §1

[3] = molecular target: Gal(b1-4)GlcNAc(b1-6)GalNAc
In short: as §1

[4] = molecular target: Gal(b1-4)GlcNAc(b1-6)[Gal(b1-3)]GalNAc
In short: as §1

Gal3S(b1-3)GalNAc = molecular target: Gal3S(b1-3)GalNAc
In short: as §1

Gal3S(b1-3)GlcNAc = molecular target: Gal3S(b1-3)GlcNAc
In short: as §1

[5] = molecular target: Gal3S(b1-3)[Fuc(a1-4)]GlcNAc
In short: as §1

Gal3S(b1-4)Glc = molecular target: Gal3S(b1-4)Glc
In short: as §1

Gal3S(b1-4)Glc6S = molecular target: Gal3S(b1-4)Glc6S
In short: as §1

Gal3S(b1-4)GlcNAc = molecular target: Gal3S(b1-4)GlcNAc
In short: as §1

Gal3S(b1-4)GlcNAc6S = molecular target: Gal3S(b1-4)GlcNAc6S
In short: as §1

[6] = molecular target: Gal3S(b1-4)[Fuc(a1-3)]Glc
In short: as §1

Gal3S4S(b1-4)GlcNAc = molecular target: Gal3S4S(b1-4)GlcNAc
In short: as §1

Gal3S6S(b1-4)GlcNAc = molecular target: Gal3S6S(b1-4)GlcNAc
In short: as §1

Gal3S6S(b1-4)GlcNAc6S = molecular target: Gal3S6S(b1-4)GlcNAc6S
In short: as §1

Gal4S(b1-4)GlcNAc = molecular target: Gal4S(b1-4)GlcNAc
In short: as §1

Gal4S6S(b1-4)GlcNAc = molecular target: Gal4S6S(b1-4)GlcNAc
In short: as §1

Gal6S(b1-4)Glc = molecular target: Gal6S(b1-4)Glc
In short: as §1

Gal6S(b1-4)Glc6S = molecular target: Gal6S(b1-4)Glc6S
In short: as §1

Gal6S(b1-4)GlcNAc = molecular target: Gal6S(b1-4)GlcNAc
In short: as §1

Gal6S(b1-4)GlcNAc6S = molecular target: Gal6S(b1-4)GlcNAc6S
In short: as §1

GalNAc(a1-3)Gal = molecular target: GalNAc(a1-3)Gal
In short: as §1

GalNAc(a1-3)GalNAc = molecular target: GalNAc(a1-3)GalNAc
In short: as §1

GalNAc(b1-3)Gal = molecular target: GalNAc(b1-3)Gal
In short: as §1

[7] = molecular target: GalNAc(b1-3)Gal(a1-4)Gal(b1-4)GlcNAc
In short: as §1

[8] = molecular target: GalNAc(b1-3)Gal(a1-4)Gal(b1-4)GlcNAc(b1-3)Gal(b1-4)Glc
In short: as §1

GalNAc(b1-3)GalNAc = molecular target: GalNAc(b1-3)GalNAc
In short: as §1

GalNAc(b1-4)GlcNAc = molecular target: GalNAc(b1-4)GlcNAc
In short: as §1

[9] = molecular target: GalNAc(b1-4)GlcNAc(b1-2)Man(a1-3)[GalNAc(b1-4)GlcNAc(b1-2)Man(a1-6)]Man(b1-4)GlcNAc(b1-4)GlcNAc
In short: as §1

Glc(a1-4)Glc = molecular target: Glc(a1-4)Glc
In short: as §1

Glc(a1-6)Glc(a1-6)Glc = molecular target: Glc(a1-6)Glc(a1-6)Glc
In short: as §1

Glc(b1-4)Glc = molecular target: Glc(b1-4)Glc
In short: as §1

Glc(b1-6)Glc = molecular target: Glc(b1-6)Glc
In short: as §1

GlcA(b1-3)Gal = molecular target: GlcA(b1-3)Gal
In short: as §1

GlcA(b1-3)GlcNAc = molecular target: GlcA(b1-3)GlcNAc
In short: as §1

GlcA(b1-6)Gal = molecular target: GlcA(b1-6)Gal
In short: as §1

[10] = molecular target: GlcNAc(a1-3)Gal(b1-4)GlcNAc
In short: as §1

[11] = molecular target: GlcNAc(a1-4)Gal(b1-3)GlcNAc
In short: as §1

[12] = molecular target: GlcNAc(a1-4)Gal(b1-4)GalNAc
In short: as §1

[13] = molecular target: GlcNAc(a1-4)Gal(b1-4)GlcNAc
In short: as §1

[14] = molecular target: GlcNAc(a1-4)Gal(b1-4)GlcNAc(b1-3)Gal(b1-4)Glc
In short: as §1

[15] = molecular target: GlcNAc(a1-4)Gal(b1-4)GlcNAc(b1-3)Gal(b1-4)GlcNAc
In short: as §1

[16] = molecular target: GlcNAc(a1-4)Gal(b1-4)GlcNAc(b1-3)Gal(b1-4)GlcNAc(b1-3)Gal(b1-4)GlcNAc
In short: as §1

[17] = molecular target: GlcNAc(a1-4)Gal(b1-4)GlcNAc(b1-3)Gal(b1-4)[Fuc(a1-3)]GlcNAc(b1-3)Gal(b1-4)[Fuc(a1-3)]GlcNAc
In short: as §1

[18] = molecular target: GlcNAc(a1-6)Gal(b1-4)GlcNAc
In short: as §1

[19] = molecular target: GlcNAc(b1-2)Gal(b1-3)GalNAc
In short: as §1

[20] = molecular target: GlcNAc(b1-2)Man(a1-3)[GlcNAc(b1-2)Man(a1-6)]Man(b1-4)GlcNAc(b1-4)GlcNAc
In short: as §1

[21] = molecular target: GlcNAc(b1-2)Man(a1-3)[GlcNAc(b1-2)Man(a1-6)]Man(b1-4)GlcNAc(b1-4)[Fuc(a1-6)]GlcNAc
In short: as §1

GlcNAc(b1-3)Gal = molecular target: GlcNAc(b1-3)Gal
In short: as §1

[22] = molecular target: GlcNAc(b1-3)Gal(b1-3)GalNAc
In short: as §1

GlcNAc(b1-3)Gal(b1-4)Glc = molecular target: GlcNAc(b1-3)Gal(b1-4)Glc
In short: as §1

[23] = molecular target: GlcNAc(b1-3)Gal(b1-4)GlcNAc
In short: as §1

[24] = molecular target: GlcNAc(b1-3)Gal(b1-4)GlcNAc(b1-3)Gal(b1-4)GlcNAc
In short: as §1

GlcNAc(b1-3)GalNAc = molecular target: GlcNAc(b1-3)GalNAc
In short: as §1

GlcNAc(b1-3)Man = molecular target: GlcNAc(b1-3)Man
In short: as §1

[25] = molecular target: GlcNAc(b1-3)[GlcNAc(b1-4)][GlcNAc(b1-6)]GlcNAc
In short: as §1

[26] = molecular target: GlcNAc(b1-3)[GlcNAc(b1-6)]Gal(b1-4)GlcNAc
In short: as §1

[27] = molecular target: GlcNAc(b1-3)[GlcNAc(b1-6)]GalNAc
In short: as §1

[28] = molecular target: GlcNAc(b1-4)Gal(b1-4)GlcNAc
In short: as §1

GlcNAc(b1-4)GlcNAc = molecular target: GlcNAc(b1-4)GlcNAc
In short: as §1

B1: DETC sTCR (Mus musculus) (protein)
chain: LDVYLEPVAKTFTVVAGDPASFYCTVTGGDMKNYHMSWYKKNGTNALFLVYKLNSNSTDGGKSNLKGKINISKNQFILDIQKATMKDAGTYYCGSDIGGSSWDTRQMFFGTGIELFVEPKSQPPAKPSVFIMKNGTNVACLVKDFYPKEVTISLRSSKKIVEFDPAIVISPSGKYSAVKLGQYGDSNSVTCSVQHNSETVHSTDFEPYANSFNNEKLPEPENDTQISEPCSSADLVPRGSTTAPSAQLKKKLQALKKKNAQLKWKLQALKKKLAQHHHHHHDSWISQDQLSFTRRPNKTVHISCKLSGVPLHNTIVHWYQLKEGEPLRRIFYGSVKTYKQDKSHSRLEIDEKDDGTFYLIINNVVTSDEATYYCACWDSSGFHKVFAEGTKLIVIPSDKRLDADISPKPTIFLPSVAETNLHKTGTYLCLLEKFFPDVIRVYWKEKDGNTILDSQEGDTLKTNDTYMKFSWLTVPERAMGKEHRCIVKHENNKGGADQEIFFPSIKKVAVSTKPTTCSSADLVPRGSTTAPSAQLEKELQALEKENAQLEWELQALEKELAQLNDIFEAQKIEW
glycan array binding signal (z-score) [1]: 1.48 | glycan array binding signal (z-score) [2]: -0.482 | glycan array binding signal (z-score) [3]: -0.211 | glycan array binding signal (z-score) [4]: 0.963 | glycan array binding signal (z-score) (Gal3S(b1-3)GalNAc): -0.476 | glycan array binding signal (z-score) (Gal3S(b1-3)GlcNAc): -0.401 | glycan array binding signal (z-score) [5]: 0.144 | glycan array binding signal (z-score) (Gal3S(b1-4)Glc): -0.234 | glycan array binding signal (z-score) (Gal3S(b1-4)Glc6S): -0.454 | glycan array binding signal (z-score) (Gal3S(b1-4)GlcNAc): 2.74 | glycan array binding signal (z-score) (Gal3S(b1-4)GlcNAc6S): 0.151 | glycan array binding signal (z-score) [6]: 0.85 | glycan array binding signal (z-score) (Gal3S4S(b1-4)GlcNAc): -0.546 | glycan array binding signal (z-score) (Gal3S6S(b1-4)GlcNAc): -0.25 | glycan array binding signal (z-score) (Gal3S6S(b1-4)GlcNAc6S): 0.465 | glycan array binding signal (z-score) (Gal4S(b1-4)GlcNAc): -0.27 | glycan array binding signal (z-score) (Gal4S6S(b1-4)GlcNAc): -0.471 | glycan array binding signal (z-score) (Gal6S(b1-4)Glc): -0.381 | glycan array binding signal (z-score) (Gal6S(b1-4)Glc6S): -0.376 | glycan array binding signal (z-score) (Gal6S(b1-4)GlcNAc): -0.4 | glycan array binding signal (z-score) (Gal6S(b1-4)GlcNAc6S): -0.529 | glycan array binding signal (z-score) (GalNAc(a1-3)Gal): -0.71 | glycan array binding signal (z-score) (GalNAc(a1-3)GalNAc): -0.567 | glycan array binding signal (z-score) (GalNAc(b1-3)Gal): 0.005 | glycan array binding signal (z-score) [7]: -0.629 | glycan array binding signal (z-score) [8]: -0.289 | glycan array binding signal (z-score) (GalNAc(b1-3)GalNAc): -0.204 | glycan array binding signal (z-score) (GalNAc(b1-4)GlcNAc): -0.411 | glycan array binding signal (z-score) [9]: 1.48 | glycan array binding signal (z-score) (Glc(a1-4)Glc): 1.66 | glycan array binding signal (z-score) (Glc(a1-6)Glc(a1-6)Glc): -0.174 | glycan array binding signal (z-score) (Glc(b1-4)Glc): 1.68 | glycan array binding signal (z-score) (Glc(b1-6)Glc): -0.344 | glycan array binding signal (z-score) (GlcA(b1-3)Gal): -0.521 | glycan array binding signal (z-score) (GlcA(b1-3)GlcNAc): 0.148 | glycan array binding signal (z-score) (GlcA(b1-6)Gal): -0.468 | glycan array binding signal (z-score) [10]: -0.42 | glycan array binding signal (z-score) [11]: -0.245 | glycan array binding signal (z-score) [12]: 3.96 | glycan array binding signal (z-score) [13]: 0.237 | glycan array binding signal (z-score) [14]: -0.469 | glycan array binding signal (z-score) [15]: 0.076 | glycan array binding signal (z-score) [16]: -0.493 | glycan array binding signal (z-score) [17]: 5.91 | glycan array binding signal (z-score) [18]: -0.719 | glycan array binding signal (z-score) [19]: 0.055 | glycan array binding signal (z-score) [20]: -0.435 | glycan array binding signal (z-score) [21]: 0.449 | glycan array binding signal (z-score) (GlcNAc(b1-3)Gal): 1.33 | glycan array binding signal (z-score) [22]: -0.306 | glycan array binding signal (z-score) (GlcNAc(b1-3)Gal(b1-4)Glc): -0.656 | glycan array binding signal (z-score) [23]: -0.215 | glycan array binding signal (z-score) [24]: -0.626 | glycan array binding signal (z-score) (GlcNAc(b1-3)GalNAc): 1.69 | glycan array binding signal (z-score) (GlcNAc(b1-3)Man): -0.035 | glycan array binding signal (z-score) [25]: -0.407 | glycan array binding signal (z-score) [26]: -0.67 | glycan array binding signal (z-score) [27]: -0.395 | glycan array binding signal (z-score) [28]: -0.766 | glycan array binding signal (z-score) (GlcNAc(b1-4)GlcNAc): -0.517
